# In all, about 310,000 compounds went through this assay and about 14,000 (4.5%) showed an effect of 50% or more. The effect is printed as a negative number. Some of the results follow.
# Target: human ether-à-go-go-related gene (hERG) potassium channel (human, UniProt Q12809)
# Assay: primary screen, population patch clamp on CHO cells stably expressing hERG
# 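Also: peak tail current of the secondary pulse compared with the same well before compound.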
# Chain of human ether-à-go-go-related gene (hERG) potassium channel (Q12809 whole entry, looked up): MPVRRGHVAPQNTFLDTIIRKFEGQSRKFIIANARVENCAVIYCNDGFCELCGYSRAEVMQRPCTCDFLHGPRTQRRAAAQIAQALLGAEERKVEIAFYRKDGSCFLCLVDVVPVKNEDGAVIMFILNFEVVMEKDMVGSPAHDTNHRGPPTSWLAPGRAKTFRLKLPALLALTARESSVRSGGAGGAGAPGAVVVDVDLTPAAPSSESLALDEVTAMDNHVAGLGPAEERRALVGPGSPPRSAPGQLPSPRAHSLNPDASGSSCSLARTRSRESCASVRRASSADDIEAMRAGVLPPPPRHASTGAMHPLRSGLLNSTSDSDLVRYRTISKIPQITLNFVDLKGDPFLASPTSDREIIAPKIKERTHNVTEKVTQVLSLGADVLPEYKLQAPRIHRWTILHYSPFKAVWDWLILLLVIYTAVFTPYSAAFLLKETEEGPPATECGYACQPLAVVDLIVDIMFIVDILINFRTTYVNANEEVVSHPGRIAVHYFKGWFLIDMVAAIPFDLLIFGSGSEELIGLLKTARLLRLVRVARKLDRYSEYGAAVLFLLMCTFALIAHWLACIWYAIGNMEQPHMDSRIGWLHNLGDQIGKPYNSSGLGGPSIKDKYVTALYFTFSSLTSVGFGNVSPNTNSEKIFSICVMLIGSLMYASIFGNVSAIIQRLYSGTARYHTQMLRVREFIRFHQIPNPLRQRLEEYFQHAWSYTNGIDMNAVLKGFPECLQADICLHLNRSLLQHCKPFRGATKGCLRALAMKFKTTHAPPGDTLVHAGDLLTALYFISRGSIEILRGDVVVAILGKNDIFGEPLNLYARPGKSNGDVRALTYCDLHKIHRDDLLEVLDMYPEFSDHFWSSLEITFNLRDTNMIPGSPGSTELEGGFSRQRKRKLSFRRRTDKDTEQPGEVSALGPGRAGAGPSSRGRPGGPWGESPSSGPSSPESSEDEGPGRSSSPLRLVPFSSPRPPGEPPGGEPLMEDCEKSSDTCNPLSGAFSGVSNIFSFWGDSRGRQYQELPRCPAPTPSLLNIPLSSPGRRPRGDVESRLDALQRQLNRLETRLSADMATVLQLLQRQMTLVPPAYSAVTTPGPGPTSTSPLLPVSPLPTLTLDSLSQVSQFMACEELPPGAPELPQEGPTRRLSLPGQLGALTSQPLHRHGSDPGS
row,SMILES,"hERG current change (%, negative = inhibition) at 10uM"
1,CCOC(=O)c1c(C)n(CC(O)CN2CCOCC2)c2cc(Br)c(OC)cc12.Cl (stereo not drawn),-24%
2,O=[N+]([O-])c1ccc(N2CCN(S(=O)(=O)c3ccc(Cl)cc3)CC2)cc1NCc1cccnc1,2.59%
3,O=C(NC1CCS(=O)(=O)C1)c1ccc(S(=O)(=O)N2CCCC2)cc1 (stereo not drawn),9.83%
4,Cc1cccc(NC(=O)CSc2nc3ccc(N4C(=O)c5ccccc5C4=O)cc3s2)c1C,16.7%
5,CC1(C)C2CCC1(CS(=O)(=O)N1CCOCC1)C(=O)C2 (stereo not drawn),-1.75%
6,COc1ccc(OC)c(NC(=O)N2CCCc3ccccc32)c1,-3.9%
7,CC(Sc1nccn1C)C(=O)Nc1ccccc1 (stereo not drawn),12.8%
8,CC(=O)Nc1ccc(NC(=O)C(C)OC(=O)CCc2nc3ccccc3s2)cc1 (stereo not drawn),8.54%
9,Cl.Fc1ccc2c(c1)nnn2C1CCN(Cc2nnnn2C2CCCCC2)CC1,-38.1%
10,O=C1[C@H]2[C@@H](/C=C/c3ccccc3)N3C(=O)CN(CC4CC4)C(=O)[C@@]3(Cc3ccccc3)[C@H]2C(=O)N1c1ccccc1,-8.66%
11,COCCNC(=O)/C(C#N)=C/c1ccc(C)o1,4.2%
12,COC(=O)C1=C(C)NC(C)=C(C(=O)OC)C1c1ccc(N(C)C)cc1,-19%
13,Cc1cccn(Cc2c(Cl)cccc2Cl)c1=O,-9.53%
14,COCCNC(=O)CSc1nnc(NC(=O)C2CC(=O)N(c3ccccc3OC)C2)s1 (stereo not drawn),17.5%
15,COC(=O)C1=C(COc2ccccc2)NC(=O)NC1c1ccc(Cl)cc1 (stereo not drawn),14.2%
16,COc1cc(S(=O)(=O)N2CCN=C2c2ccccc2)ccc1F,-4.75%
17,COc1ccc(-c2nc3c(n2O)CCCC3=O)cc1OC,10%
18,CC(NC(=O)Cc1ccccc1[N+](=O)[O-])c1ccccc1 (stereo not drawn),0.588%
19,Cc1ccc(C2CC2C(=O)NN)cc1 (stereo not drawn),-0.68%
20,COCCn1nnnc1C(CC(C)C)N1CCN(c2ccccc2)CC1 (stereo not drawn),5.44%
21,COc1ccccc1C1/C(=C(\O)c2ccc3c(c2)OCCO3)C(=O)C(=O)N1CCCn1ccnc1 (stereo not drawn),21.8%
22,CN(C(=O)COC(=O)CCc1c[nH]c2ccccc12)c1ccccc1,11.1%
23,COc1cccc(C(=O)N(Cc2ccco2)c2c(N)n(Cc3ccccc3)c(=O)[nH]c2=O)c1,10.1%
24,COCCC(=O)N1CCCC(C(=O)c2ccc(C(F)(F)F)cc2)C1 (stereo not drawn),-1.83%

# From article PMC4336329 (PLoS ONE, 2015)
